# The other results are listed elsewhere or left out.
# How the values were obtained:
# Test in all cases: glycan array binding signal (z-score within array); higher = stronger binding
# Settings in all cases: glycan notation: IUPAC condensed, linker removed
# [1] = target: GalNAc(b1-4)GlcNAc(b1-2)Man
# Summary of the method: (§1)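 Negative Z-scores can be read as non-binding. The Z-score is calculated within each array and then averaged across arrays of one protein sequence at different concentrations or buffers and across linkers. Arrays, 3228 in all, were curated from the Consortium for Functional Glycomics database and kept only where the protein sequence was available.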
# [2] = target: GalNAc(b1-4)GlcNAc(b1-2)Man(a1-3)[GalNAc(b1-4)GlcNAc(b1-2)Man(a1-6)]Man(b1-4)GlcNAc(b1-4)GlcNAc
# Summary of the method: as §1
# [3] = target: GalNAc(b1-4)GlcNAc(b1-3)GalNAc(b1-4)GlcNAc
# Summary of the method: as §1
# GalNAc(b1-4)GlcNAc6S = target: GalNAc(b1-4)GlcNAc6S
# Summary of the method: as §1
# GalNAc(b1-6)GalNAc = target: GalNAc(b1-6)GalNAc
# Summary of the method: as §1
# GalNAc3S(b1-4)GlcNAc = target: GalNAc3S(b1-4)GlcNAc
# Summary of the method: as §1
# GalNAc3S(b1-4)GlcNAc3S = target: GalNAc3S(b1-4)GlcNAc3S
# Summary of the method: as §1
# [4] = target: GalNAc3S(b1-4)[Fuc(a1-3)]GlcNAc
# Summary of the method: as §1
# GalNAc4S6S(b1-4)GlcNAc = target: GalNAc4S6S(b1-4)GlcNAc
# Summary of the method: as §1
# GalNAc6S(b1-4)GlcNAc = target: GalNAc6S(b1-4)GlcNAc
# Summary of the method: as §1
# Glc(a1-4)Glc = target: Glc(a1-4)Glc
# Summary of the method: as §1
# [5] = target: Glc(a1-4)Glc(a1-4)Glc(a1-4)Glc
# Summary of the method: as §1
# Glc(a1-6)Glc(a1-6)Glc = target: Glc(a1-6)Glc(a1-6)Glc
# Summary of the method: as §1
# [6] = target: Glc(a1-6)Glc(a1-6)Glc(a1-6)Glc
# Summary of the method: as §1
# Glc(b1-4)Glc = target: Glc(b1-4)Glc
# Summary of the method: as §1
# Glc(b1-6)Glc = target: Glc(b1-6)Glc
# Summary of the method: as §1
# GlcA(b1-3)Gal = target: GlcA(b1-3)Gal
# Summary of the method: as §1
# GlcA(b1-3)GlcNAc = target: GlcA(b1-3)GlcNAc
# Summary of the method: as §1
# GlcA(b1-6)Gal = target: GlcA(b1-6)Gal
# Summary of the method: as §1
# [7] = target: GlcA3S(b1-3)Gal(b1-4)GlcNAc(b1-2)Man
# Summary of the method: as §1
# [8] = target: GlcA3S(b1-3)Gal(b1-4)GlcNAc(b1-3)Gal(b1-4)Glc
# Summary of the method: as §1
# [9] = target: GlcNAc(a1-3)Gal(b1-4)GlcNAc
# Summary of the method: as §1
# [10] = target: GlcNAc(a1-4)Gal(b1-3)GlcNAc
# Summary of the method: as §1
# [11] = target: GlcNAc(a1-4)Gal(b1-4)GalNAc
# Summary of the method: as §1
# [12] = target: GlcNAc(a1-4)Gal(b1-4)GlcNAc
# Summary of the method: as §1
# [13] = target: GlcNAc(a1-4)Gal(b1-4)GlcNAc(b1-3)Gal(b1-4)Glc
# Summary of the method: as §1
# [14] = target: GlcNAc(a1-4)Gal(b1-4)GlcNAc(b1-3)Gal(b1-4)GlcNAc
# Summary of the method: as §1
# [15] = target: GlcNAc(a1-4)Gal(b1-4)GlcNAc(b1-3)Gal(b1-4)GlcNAc(b1-3)Gal(b1-4)GlcNAc
# Summary of the method: as §1
# [16] = target: GlcNAc(a1-4)Gal(b1-4)GlcNAc(b1-3)Gal(b1-4)[Fuc(a1-3)]GlcNAc(b1-3)Gal(b1-4)[Fuc(a1-3)]GlcNAc
# Summary of the method: as §1
# [17] = target: GlcNAc(a1-6)Gal(b1-4)GlcNAc
# Summary of the method: as §1
# [18] = target: GlcNAc(b1-2)Gal(b1-3)GalNAc
# Summary of the method: as §1
# [19] = target: GlcNAc(b1-2)Man(a1-3)[GlcNAc(b1-2)Man(a1-6)]Man(b1-4)GlcNAc(b1-4)GlcNAc
# Summary of the method: as §1
# [20] = target: GlcNAc(b1-2)Man(a1-3)[GlcNAc(b1-2)Man(a1-6)]Man(b1-4)GlcNAc(b1-4)[Fuc(a1-6)]GlcNAc
# Summary of the method: as §1
# [21] = target: GlcNAc(b1-2)Man(a1-3)[GlcNAc(b1-4)][GlcNAc(b1-2)Man(a1-6)]Man(b1-4)GlcNAc(b1-4)GlcNAc
# Summary of the method: as §1
# [22] = target: GlcNAc(b1-2)Man(a1-3)[GlcNAc(b1-4)][GlcNAc(b1-2)Man(a1-6)]Man(b1-4)GlcNAc(b1-4)[Fuc(a1-6)]GlcNAc
# Summary of the method: as §1
# [23] = target: GlcNAc(b1-2)[GlcNAc(b1-4)]Man(a1-3)[GlcNAc(b1-2)Man(a1-6)]Man(b1-4)GlcNAc(b1-4)GlcNAc
# Summary of the method: as §1
# [24] = target: GlcNAc(b1-2)[GlcNAc(b1-4)]Man(a1-3)[GlcNAc(b1-4)][GlcNAc(b1-2)Man(a1-6)]Man(b1-4)GlcNAc(b1-4)GlcNAc
# Summary of the method: as §1
binder,measurement,setting,value
PX9937J-pdi-523-26-523 (Parabacteroides distasonis) (protein) EPVSSISDANYWKSPDLFKAFNIGLHGLLRSQSSYNIFVLGEPRSDIYGDQPFGGEATQGVERFSYNTINAEFTGISNFANFYTTLNQINLMIRRTNETDLLGEAEKNYYLGQAYGLRAYIYFHLLRSWGDVIITTEPTLGSELDISHLDKAASPASEVMDLIKKDIDASEKAFGGDYSYKQGKCYWSKPATLMLKGEVYLWSGRQMGGGTGDYTVAKTALQDLQQNGNLKLQEKFTDVFSFNNKENSEMIFALHSGKEDDFMMWRDYNWRNNMVPQREYMAGYCDETGTPFLEIPGYNLQGLMRYQVKKDHYLKSFREGDTRLKGTLKAVYKKHEDGTLEYIAPIQYKFQGTTLEGSNERSWYDDYPIYRYADALLLLAEAKALLGEDPSTEINAVRERAYGSEYFNAHKNEVAYPNDKGSFYNDNPFEAGDENVMEAILKERLREFFFEGKRWYDLRRFGKDYVLKYTTAQESRLLWPINEGALTNNPALKQTPGY,glycan array binding signal (z-score),[1],-0.322
same,glycan array binding signal (z-score),[2],0.019
same,glycan array binding signal (z-score),[3],2.48
same,glycan array binding signal (z-score),GalNAc(b1-4)GlcNAc6S,4.57
same,glycan array binding signal (z-score),GalNAc(b1-6)GalNAc,0.147
same,glycan array binding signal (z-score),GalNAc3S(b1-4)GlcNAc,0.755
same,glycan array binding signal (z-score),GalNAc3S(b1-4)GlcNAc3S,-0.112
same,glycan array binding signal (z-score),[4],0.108
same,glycan array binding signal (z-score),GalNAc4S6S(b1-4)GlcNAc,0.279
same,glycan array binding signal (z-score),GalNAc6S(b1-4)GlcNAc,-0.542
same,glycan array binding signal (z-score),Glc(a1-4)Glc,-0.14
same,glycan array binding signal (z-score),[5],1.07
same,glycan array binding signal (z-score),Glc(a1-6)Glc(a1-6)Glc,-0.451
same,glycan array binding signal (z-score),[6],0.183
same,glycan array binding signal (z-score),Glc(b1-4)Glc,-0.296
same,glycan array binding signal (z-score),Glc(b1-6)Glc,0.051
same,glycan array binding signal (z-score),GlcA(b1-3)Gal,-0.265
same,glycan array binding signal (z-score),GlcA(b1-3)GlcNAc,-0.75
same,glycan array binding signal (z-score),GlcA(b1-6)Gal,-0.638
same,glycan array binding signal (z-score),[7],-0.935
same,glycan array binding signal (z-score),[8],-0.784
same,glycan array binding signal (z-score),[9],-0.308
same,glycan array binding signal (z-score),[10],-0.561
same,glycan array binding signal (z-score),[11],0.707
same,glycan array binding signal (z-score),[12],0.513
same,glycan array binding signal (z-score),[13],-0.799
same,glycan array binding signal (z-score),[14],-0.296
same,glycan array binding signal (z-score),[15],-0.214
same,glycan array binding signal (z-score),[16],1.32
same,glycan array binding signal (z-score),[17],-0.283
same,glycan array binding signal (z-score),[18],-0.438
same,glycan array binding signal (z-score),[19],-0.136
same,glycan array binding signal (z-score),[20],-0.729
same,glycan array binding signal (z-score),[21],-0.434
same,glycan array binding signal (z-score),[22],-0.256
same,glycan array binding signal (z-score),[23],0.146
same,glycan array binding signal (z-score),[24],-0.456

# From the supplement of paper PMC8728848
